From article PMC4336329 (PLoS ONE, 2015)
The whole screen tested about 310,000 compounds, of which about 2,200 (0.71%) showed an effect of 50% or more. The effect is printed as a negative number. The list shows a part of the results.

target: human ether-à-go-go-related gene (hERG) potassium channel (human, UniProt Q12809); assay: primary screen, population patch clamp on CHO cells stably expressing hERG
Sequence (Q12809 whole entry, looked up): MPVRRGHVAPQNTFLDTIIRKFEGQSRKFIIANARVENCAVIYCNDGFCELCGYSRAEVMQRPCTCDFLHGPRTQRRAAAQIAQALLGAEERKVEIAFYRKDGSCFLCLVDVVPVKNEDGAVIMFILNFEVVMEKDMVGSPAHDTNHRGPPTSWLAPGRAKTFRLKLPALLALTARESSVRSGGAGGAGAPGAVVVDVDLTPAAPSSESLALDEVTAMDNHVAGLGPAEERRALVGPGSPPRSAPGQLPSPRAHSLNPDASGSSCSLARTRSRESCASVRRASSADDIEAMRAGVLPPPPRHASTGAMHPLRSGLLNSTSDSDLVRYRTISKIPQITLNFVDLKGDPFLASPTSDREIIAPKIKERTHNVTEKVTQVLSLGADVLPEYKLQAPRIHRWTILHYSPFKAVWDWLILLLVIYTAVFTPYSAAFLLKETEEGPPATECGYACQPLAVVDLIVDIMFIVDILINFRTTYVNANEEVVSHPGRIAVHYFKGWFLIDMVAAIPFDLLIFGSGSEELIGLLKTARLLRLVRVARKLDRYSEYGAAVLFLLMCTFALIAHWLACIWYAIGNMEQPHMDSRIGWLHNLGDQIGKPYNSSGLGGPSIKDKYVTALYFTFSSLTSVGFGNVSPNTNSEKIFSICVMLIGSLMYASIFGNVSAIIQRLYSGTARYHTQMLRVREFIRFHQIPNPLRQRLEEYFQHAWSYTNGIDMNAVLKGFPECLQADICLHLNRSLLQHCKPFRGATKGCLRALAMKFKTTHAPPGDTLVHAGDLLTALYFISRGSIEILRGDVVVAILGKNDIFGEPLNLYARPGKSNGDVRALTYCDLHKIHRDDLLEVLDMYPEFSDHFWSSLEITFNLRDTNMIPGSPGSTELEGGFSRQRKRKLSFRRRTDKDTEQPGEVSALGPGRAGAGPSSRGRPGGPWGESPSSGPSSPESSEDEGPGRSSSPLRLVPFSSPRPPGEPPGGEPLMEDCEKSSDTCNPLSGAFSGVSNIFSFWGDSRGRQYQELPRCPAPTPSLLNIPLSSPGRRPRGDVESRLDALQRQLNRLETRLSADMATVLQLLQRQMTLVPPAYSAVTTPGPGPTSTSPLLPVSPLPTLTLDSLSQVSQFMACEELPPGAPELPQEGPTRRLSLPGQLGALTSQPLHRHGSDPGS

First: COc1ccc(N2CCN(S(=O)(=O)c3c(C)noc3/C=C/N(C)C)CC2)cc1
Second: COc1cccc(N2CCN(S(=O)(=O)c3cccc4nsnc34)CC2)c1
The “hERG current change (%, negative = inhibition) at 1uM” value of the first is lower: -0.468% for the first, 0.986% for the second.

Compared with `NC(Cc1c[nH]c2ccc(OCc3ccccc3)cc12)C(=O)O` (stereo not drawn), `CC(=O)c1c(C)n(Cc2ccccc2)c2ccc(O)cc12` is lower in “hERG current change (%, negative = inhibition) at 1uM” value: 17.3% for the first, 3.98% for the second.

Compared with `COc1cc2c(cc1OC)CN(C(=S)Nc1c(C)cccc1C)CC2`, `COc1cc(OC)c(OC)cc1CNCc1ccco1` is lower in “hERG current change (%, negative = inhibition) at 1uM” value: 11.2% for the first, 10.9% for the second.

First: CC(=O)NC12CC3CC(C1)CC(C(=O)Oc1ccc(N(C)S(=O)(=O)c4cc(C)ccc4C)cc1)(C3)C2
Second: Cc1ccc(S(=O)(=O)N2CCN(C(=O)C3CCN(C(=O)c4ccc(F)cc4)CC3)CC2)c(C)c1
The “hERG current change (%, negative = inhibition) at 1uM” value of the first is higher: 9.8% for the first, -16.8% for the second.

First: Cc1cc2nc(/C(C#N)=C/c3ccncc3)[nH]c2cc1C
Second: CC(=O)c1ccc2c(c1)Cc1cc(C(C)=O)ccc1-2
The “hERG current change (%, negative = inhibition) at 1uM” value of the first is lower: -7.28% for the first, 16.4% for the second.

Going from `Cc1nc(N2CCCCC2)c2c(-c3cccs3)csc2n1` to `CC(C)c1ccccc1OCC(=O)N1CCCCCCC1`, the “hERG current change (%, negative = inhibition) at 1uM” value rises from 8.05% to 16.9%.

First: COc1ccc2c(c1)CCc1c(C(=O)Nc3ccn(Cc4ccc(C)cc4)n3)noc1-2
Second: Cc1ccc(NC(=O)c2ccc(Cn3cc(Br)cn3)o2)cc1
The “hERG current change (%, negative = inhibition) at 1uM” value of the first is higher: 9.99% for the first, -2.24% for the second.

Going from `COCCOC(=O)C1=C(C)OC(N)=C(C(=O)OC)C12C(=O)Nc1ccccc12` (stereo not drawn) to `Cn1c(N)c(C(=O)COC(=O)COc2ccc3ccccc3c2)c(=O)n(C)c1=O`, the “hERG current change (%, negative = inhibition) at 1uM” value falls from 8.81% to -1.68%.

Going from `CN1C(C)(C)CC(NC(=O)c2ccco2)CC1(C)C` to `O=C(CN1CCC(NC(=O)c2ccco2)CC1)Nc1cccc2ccccc12`, the “hERG current change (%, negative = inhibition) at 1uM” value rises from -4.88% to 6.35%.

First: c1ccc(OCCCn2nnc(-c3ccc(N4CCOCC4)cc3)n2)cc1
Second: O=[N+]([O-])c1ccccc1S(=O)(=O)Nc1ccc(-c2ccc(N3CCOCC3)nn2)cc1
The “hERG current change (%, negative = inhibition) at 1uM” value of the first is higher: 20.5% for the first, 4.36% for the second.

First: O=C1CCC(C(=O)N(Cc2ccco2)C2(C(=O)NC3CCCC3)CCCCC2)N1 (stereo not drawn)
Second: O=C(CC(=O)NC1CCCCC1)N/N=C/c1ccccc1[N+](=O)[O-]
The “hERG current change (%, negative = inhibition) at 1uM” value of the first is higher: 14.5% for the first, 7.42% for the second.

Going from `Cc1ccc2c(c1)N(CCCC(=O)NCC1COc3ccccc3O1)C(=O)CO2` (stereo not drawn) to `Cc1ccc(NC(=O)CN2C(=O)C3CCCCN3C(=O)c3ccccc32)cc1` (stereo not drawn), the “hERG current change (%, negative = inhibition) at 1uM” value rises from -6% to 3.84%.

Going from `CC(C)[C@H](NC(=O)N1CCn2c1nc1ccccc12)C(=O)N[C@H](C(=O)O)c1ccccc1` to `CC(C)C(=O)Nc1cccc(NC(=S)NC(=O)c2ccccc2Cl)c1`, the “hERG current change (%, negative = inhibition) at 1uM” value falls from 4.73% to -4.92%.

Going from `CC1(c2ccccc2Br)NC(=O)N(CC(=O)Nc2ccc(S(N)(=O)=O)cc2)C1=O` (stereo not drawn) to `Cn1c2ccccc2n2c(=O)c(=O)n(CC(=O)c3ccc(F)cc3)nc12`, the “hERG current change (%, negative = inhibition) at 1uM” value falls from 12.7% to 6.52%.

Going from `O=C(CCc1ccccc1)N1CCN(c2ccc([N+](=O)[O-])cc2)CC1` to `O=C(c1ccccc1)c1cccn1CC(=O)N1CCN(C2CCCCC2)CC1`, the “hERG current change (%, negative = inhibition) at 1uM” value rises from -67.4% to -36.1%.

First: O=C(CN(Cc1ccccc1)S(=O)(=O)c1ccc(F)cc1)NCc1ccncc1
Second: Cc1ccc(S(=O)(=O)N(C)c2ccc(OCC(=O)Nc3nc4c(ccc5ccccc54)s3)cc2)cc1
The “hERG current change (%, negative = inhibition) at 1uM” value of the first is lower: -9.19% for the first, 7.09% for the second.

Compared with `CCC(=O)c1ccc(OCc2ccc(C(=O)OC)cc2)c(OC)c1`, `CCN(CC)S(=O)(=O)c1cc(C(=O)Oc2ccccc2OC)ccc1OC` is lower in “hERG current change (%, negative = inhibition) at 1uM” value: -1.16% for the first, -18.7% for the second.

First: COc1ccccc1OCCNC(=O)C1CC(=O)N(Cc2ccccc2)C1 (stereo not drawn)
Second: Cc1ccccc1OCC(=O)Nc1nnc(COc2ccccc2)s1
The “hERG current change (%, negative = inhibition) at 1uM” value of the first is lower: 4.51% for the first, 16.4% for the second.

Compared with `O=C(Nc1cccc(O)c1)C1CC(c2cccc(Br)c2)=NO1` (stereo not drawn), `O=C(Nc1ccccc1Cl)c1cccc(NC(=O)c2cccs2)c1` is lower in “hERG current change (%, negative = inhibition) at 1uM” value: 11.7% for the first, -13.9% for the second.

Compared with `Cc1cccc(C(=O)N2CCCC(Nc3ccc(F)c(F)c3)C2)n1` (stereo not drawn), `O=C(CSc1nc2cc(S(=O)(=O)N3CCOCC3)ccc2o1)Nc1c(F)cccc1F` is higher in “hERG current change (%, negative = inhibition) at 1uM” value: 7.06% for the first, 9.51% for the second.

Going from `O=C(O)C1=C[C@H](c2ccc(F)cc2)C[C@H](OCCCCO)O1` to `COC(=O)c1ccc(OCC(O)CN(CCO)CCO)cc1` (stereo not drawn), the “hERG current change (%, negative = inhibition) at 1uM” value falls from 15.5% to 5.26%.

First: COc1ccccc1NC(=O)COc1ccc(C(=O)OCC(=O)N2CCCC2=O)cc1OC
Second: COc1ccc(/C=N/NC(=O)c2ccc(C)nc2)cc1O
The “hERG current change (%, negative = inhibition) at 1uM” value of the first is lower: 10.5% for the first, 14.2% for the second.

Going from `O=C(O)C(=O)O.O=C(c1ccccc1)N1CCN(CC2CC=CCC2)CC1` (stereo not drawn) to `OCCOCCN1CCN(C(=S)Nc2ccccc2)CC1`, the “hERG current change (%, negative = inhibition) at 1uM” value rises from -9.14% to 5.76%.

Compared with `O=C(NCCCN1CCCC1)c1ccc(CSCc2cccc(Cl)c2)o1`, `NC(=O)c1nn(-c2ccccc2)nc1NC(=O)CN1CCCC1` is higher in “hERG current change (%, negative = inhibition) at 1uM” value: -30.4% for the first, 3.23% for the second.

Compared with `O=C(Nc1cccc(Cl)c1Cl)c1snnc1-c1ccccc1`, `Clc1ccc(OCc2nn3c(-c4ccccc4)nnc3s2)c(Cl)c1` is lower in “hERG current change (%, negative = inhibition) at 1uM” value: 9.21% for the first, -0.224% for the second.

First: Cc1ccc(OCC(=O)NNC(=O)c2ccoc2C)c(Br)c1
Second: CCOC(=O)c1ccc(NC(=O)Nc2cc(C)on2)cc1
The “hERG current change (%, negative = inhibition) at 1uM” value of the first is lower: 7.4% for the first, 14.9% for the second.

`S=C(c1ccc2c(c1)OCO2)N1CCCC1` and `CCC(C)(C)n1nnnc1C(c1cc(OC)ccc1OC)N1CCC(C(N)=O)CC1` (stereo not drawn) are the same in “hERG current change (%, negative = inhibition) at 1uM” value: 10.6% for the first, 10.6% for the second.

Going from `CC(C)C[C@H](NC(=O)c1nc[nH]c1C(=O)N1CCN(C(=O)OC(C)(C)C)CC1)C(=O)OCc1ccccc1` to `CCOC(=O)N1CCC(N2Cc3cccc(C(=O)NCc4ccccn4)c3C2=O)CC1`, the “hERG current change (%, negative = inhibition) at 1uM” value falls from 7.3% to -4.03%.

Going from `CCCCOC(=O)c1ccc(NC(=O)CSCc2n[nH]c(=O)[nH]2)cc1` to `CCCc1nc2ccccc2c(=O)n1CC(=O)c1ccc(OC)cc1`, the “hERG current change (%, negative = inhibition) at 1uM” value rises from 9.96% to 12.3%.

Going from `COc1ccc(OC)c(NS(=O)(=O)c2ccc3c(c2)n(C)c(=O)n3C)c1` to `COc1ccc(S(=O)(=O)c2ccccc2)cc1NC(=O)c1c(F)cccc1F`, the “hERG current change (%, negative = inhibition) at 1uM” value rises from -3.36% to 9.35%.

Compared with `COc1ccc(Br)c2c1C(=O)CC2`, `COc1ccc(C(C)C)cc1S(=O)(=O)n1cnc(C)c1` is lower in “hERG current change (%, negative = inhibition) at 1uM” value: 4.91% for the first, -3.56% for the second.

First: O=C(N/N=C/C=C/c1cccc([N+](=O)[O-])c1)C(O)c1ccccc1 (stereo not drawn)
Second: NC(=O)CSP(=O)(c1ccccc1)c1ccccc1
The “hERG current change (%, negative = inhibition) at 1uM” value of the first is lower: 8.51% for the first, 13.1% for the second.

Going from `Cn1cnnc1SCc1ccc(C#N)cc1` to `CCn1c(CSc2nnc3ccccn23)nc2cc(C(=O)O)ccc21`, the “hERG current change (%, negative = inhibition) at 1uM” value falls from 10.6% to 4.68%.

Going from `Cc1ccc(NC(=O)C2C(c3ccccc3)C=CC(c3ccccc3)C2C(=O)O)cc1` (stereo not drawn) to `Cc1ccc(NC(=O)c2ccc(-n3cccn3)c([N+](=O)[O-])c2)cc1`, the “hERG current change (%, negative = inhibition) at 1uM” value falls from 10% to -15%.

Going from `O=C(O)CCc1ccc(-c2cccs2)n1NC(=O)c1ccco1` to `O=C1COc2ccc(S(=O)(=O)NCc3ccccc3)cc2N1`, the “hERG current change (%, negative = inhibition) at 1uM” value rises from 10.2% to 17.3%.

Going from `CCNc1nc(NCC)nc(OCCNS(=O)(=O)c2ccccc2)n1` to `CCCS(=O)(=O)c1cscc1NC(=O)c1c(-c2c(F)cccc2Cl)noc1C`, the “hERG current change (%, negative = inhibition) at 1uM” value falls from 16.2% to 8.5%.

Compared with `COC(=O)c1ccc(N2C(=O)CC(N3CCC(O)(c4ccc(Br)cc4)CC3)C2=O)cc1` (stereo not drawn), `O=C(CSc1nnc(-c2ccncc2)n1-c1ccc(Cl)cc1)NCc1cccs1` is higher in “hERG current change (%, negative = inhibition) at 1uM” value: 1.17% for the first, 5.9% for the second.

First: Cc1nc(-c2cccnc2)sc1C(=O)Nc1ccc(C(F)(F)F)cc1
Second: COc1ccc(/C=C/C(=O)NCc2ccccn2)cc1
The “hERG current change (%, negative = inhibition) at 1uM” value of the first is higher: 7.49% for the first, 1.42% for the second.

First: COC(=O)C1C(=O)c2c([nH]c(C(=O)OCCSC)c2C)CC1C (stereo not drawn)
Second: COCCN1C(=O)C(=O)/C(=C(/O)c2cccc(S(=O)(=O)N(C)C)c2)C12C(=O)N(C)c1ccccc12 (stereo not drawn)
The “hERG current change (%, negative = inhibition) at 1uM” value of the first is lower: 4% for the first, 9.86% for the second.

Compared with `COc1ccc(CCNC(=O)Cc2ccc(OCc3ccccc3)c(OC)c2[N+](=O)[O-])cc1OCc1ccccc1`, `Cc1ccc(/C([O-])=C(/C(=S)NCc2ccco2)[n+]2ccccc2)cc1[N+](=O)[O-]` is lower in “hERG current change (%, negative = inhibition) at 1uM” value: 11% for the first, 6.35% for the second.

Going from `Cc1ncc(CO)c2cc(C(N)=O)c(=Nc3ccccc3)oc12` to `O=C(CSc1ncn(-c2ccccc2)n1)Nc1nncs1`, the “hERG current change (%, negative = inhibition) at 1uM” value rises from -7.38% to -5.58%.

First: Cn1c(=O)c2c(nc(CN3CCc4ccccc4C3)n2Cc2ccc(F)cc2)n(C)c1=O
Second: CC1(C)C(=O)Nc2ccccc2N1C(=O)CSc1nnc2ccccn12
The “hERG current change (%, negative = inhibition) at 1uM” value of the first is higher: 3.26% for the first, 3.25% for the second.

Going from `CCn1c(-c2cc(OC)c(OC)c(OC)c2)n[nH]c1=S` to `C=CCn1c(SCC(=O)NC2CCS(=O)(=O)C2)nnc1-c1cc2c(s1)CCC(CC)C2` (stereo not drawn), the “hERG current change (%, negative = inhibition) at 1uM” value falls from 12% to 6.6%.

In the case of `CCOc1ccc(NC(=O)C(=S)NC2CCCCC2)cc1`, the “hERG current change (%, negative = inhibition) at 1uM” value is reported as 11.2%.
